# Measured values from the supplement of paper PMC8821664.
# Structures can show the parent of a compound that is named as a salt. The list shows a part of the results. Most values come without repeats; read them as rough. Non-standard residues stand in square brackets, D forms with d. Residues, ends and D or L forms follow the SMILES beside them. *: point of attachment. NHCH2CH2OH = OCCN*; For = O=C*
# System: Beas-2B AQP5-HiBiT reporter cells
# Experiment: AQP5-HiBiT luminescence relative to vehicle (ratio to vehicle); higher = higher AQP5-HiBiT protein abundance
# Settings: 10 µM; 18 h
# 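Also: monoclonal Beas-2B line stably carrying CMV promoter-driven AQP5-HiBiT, 5,000 cells per well in 384-well plates, lytic HiBiT plus LgBiT NanoLuc luminescence, FDA-approved drug library screen.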
row,Structure (SMILES),AQP5-HiBiT luminescence
1,CC(=O)O[C@]1(C(C)=O)CC[C@H]2[C@@H]3C[C@H](C)C4=CC(=O)CC[C@]4(C)[C@H]3CC[C@@]21C [Farlutin],0.952
2,OC(CCN1CCCCC1)(c1ccccc1)C1CC2C=CC1C2 (configuration not stated) [Bipariden],0.767
3,CC(C)NCC(O)c1ccc(NS(C)(=O)=O)cc1 (configuration not stated) [Sotalol hydrochloride],1.66
4,CCN(CC)CC#CCOC(=O)C(O)(c1ccccc1)C1CCCCC1 (configuration not stated) [Oxybutynin],1.04
5,CNCC(O)c1ccc(OC(=O)C(C)(C)C)c(OC(=O)C(C)(C)C)c1 (configuration not stated) [Dipivefrin hydrochloride],0.673
6,C[N+](C)(C)CCOC(N)=O [Carbachol],0.831
7,O=C([O-])/C=C/C(=O)[O-].[Fe+2] [Ferrous fumarate],0.663
8,CO/N=C(\C(=O)N[C@@H]1C(=O)N2C(C(=O)O)=C(CSc3nc(=O)c(O)nn3C)CS[C@H]12)c1csc(N)n1 [Ceftriaxone sodium],0.846
9,C[C@@H](c1ncncc1F)[C@](O)(Cn1cncn1)c1ccc(F)cc1F [Voriconazole],1.2
10,CC1=C(/C=C/C(C)=C/C=C/C(C)=C/C=C/C=C(C)/C=C/C=C(C)/C=C/C2=C(C)CCCC2(C)C)C(C)(C)CCC1 [Beta-Carotene],1.41
11,O=C1CN(/N=C/c2ccc(-c3ccc([N+](=O)[O-])cc3)o2)C(=O)N1 [Dantrolene sodium salt],0.792
12,NC(N)=Nc1nc(CSCC/C(N)=N/S(N)(=O)=O)cs1 [Famotidine],1.16
13,COC(=O)c1ccc2c(c1)NC(=O)/C2=C(\Nc1ccc(N(C)C(=O)CN2CCN(C)CC2)cc1)c1ccccc1 [Nintedanib (BIBF 1120)],0.773
14,CC(C)c1ccc2oc3nc(N)c(C(=O)O)cc3c(=O)c2c1 [Amlexanox],1
15,CN(C)CCOc1ccc(/C(=C(/CCCl)c2ccccc2)c2ccccc2)cc1 [Toremifene citrate],1.17
16,OCCN1CCN(CCCN2c3ccccc3Sc3ccc(Cl)cc32)CC1 [Perphenazine],2

row,Structure (SMILES),AQP5-HiBiT luminescence
1,CC1=C(C/C=C(\C)CCC[C@H](C)CCC[C@H](C)CCCC(C)C)C(=O)c2ccccc2C1=O [Vitamin K1],1.06
2,COc1ccc(CNc2nc(N3CCC[C@H]3CO)ncc2C(=O)NCc2ncccn2)cc1Cl [Avanafil],0.662
3,O=C(O)c1ccc(-n2nc(-c3ccccc3O)nc2-c2ccccc2O)cc1 [Deferasirox],0.815
4,Cc1ccc(/C(=C\CN2CCCC2)c2ccccn2)cc1 [Triprolidine hydrochloride],0.819
5,C[C@H]1c2cccc(O)c2C(=O)C2=C(O)[C@]3(O)C(=O)C(C(N)=O)=C(O)[C@@H](N(C)C)[C@@H]3[C@@H](O)[C@@H]21 [Doxycycline hydrochloride],0.574
6,O=C(CCCN1CCC(O)(c2ccc(Cl)cc2)CC1)c1ccc(F)cc1 [Haloperidol],1.1
7,CS(=O)(=O)c1ccc(C2=C(c3ccccc3)C(=O)OC2)cc1 [Rofecoxib],0.712
8,NC(N)=O,0.665
9,COc1ccc(C(=O)c2ccccc2)c(O)c1 [Oxybenzone],1.13
10,NS(=O)(=O)c1cc(C(=O)O)c(NCc2ccco2)cc1Cl [Furosemide],0.976
11,Nc1nc2[nH]cc(CCc3ccc(C(=O)O)cc3)c2c(=O)[nH]1 [Pemetrexed acid],0.852
12,Cc1cc(C(C)(C)C)c(O)c(C)c1CC1=NCCN1 [Oxymetazoline hydrochloride],1.05
13,O=C(OOC(=O)c1ccccc1)c1ccccc1 [Benzoyl peroxide],0.587
14,CCC[C@@H]1C[C@@H](C(=O)N[C@@H]([C@H]2O[C@H](SC)[C@H](O)[C@@H](O)[C@H]2O)[C@@H](C)O)N(C)C1 [Lincomycin hydrochloride monohydrate],0.669
15,CNCCC(Oc1ccc(C(F)(F)F)cc1)c1ccccc1 (configuration not stated) [Fluoxetine hydrochloride],0.996
16,CC(C)C[C@@H](NC(=O)[C@H](C)NC(=O)CNC(=O)[C@@H](NC=O)C(C)C)C(=O)N[C@@H](C)C(=O)N[C@@H](C(=O)N[C@H](C(=O)N[C@H](C(=O)N[C@@H](Cc1c[nH]c2ccccc12)C(=O)N[C@H](CC(C)C)C(=O)N[C@@H](Cc1c[nH]c2ccccc12)C(=O)N[C@H](CC(C)C)C(=O)N[C@@H](Cc1c[nH]c2ccccc12)C(=O)N[C@H](CC(C)C)C(=O)N[C@@H](Cc1c[nH]c2ccccc12)C(=O)NCCO)C(C)C)C(C)C)C(C)C [Gramicidin] (For-VGA[dL]A[dV]VVW[dL]W[dL]W[dL]W-NHCH2CH2OH),4.45
